# According to PubChem BioAssay AID2451 (National Center for Advancing Translational Sciences (NCATS), 2010):
# Where “and” joins values, the source holds several entries; their conditions need not be identical. Identical values can stand only once. About 2,100 (0.72%) of roughly 290,000 compounds were called active. The shares of active, inactive and inconclusive entries below differ from those in the screen. Calls come from the whole dose curve; as a rule, active = well fitted inhibition curve with a large enough effect; inconclusive = small, poorly fitted or top-dose-only effect, or effect the other way; inactive = flat fitted curve, though single readings scatter. A potency beside an inconclusive call is a rough fit, not a confirmed value.
# Biological target: Fructose-bisphosphate aldolase (Giardia intestinalis (strain ATCC 50803 / WB clone C6)) (UniProt A8B2U2)
# Test: qHTS Assay for Inhibitors of Fructose-1,6-bisphosphate Aldolase from Giardia Lamblia; note: nearly all actives have a fitted effect of over 55% in size
# Settings: purified Giardia FBPA; series mostly up to 59.6 µM
# Method in brief: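 40 nM FBPA preincubated 10 min at RT with compound (up to 57.5 uM final), then substrate plus GAPDH/TPI/NAD/arsenate coupling and diaphorase/resazurin added. Fluorescence read after 20 min at RT, 525/598 nm.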
# Potency is the fitted concentration of half-maximal effect; tags give direction and shape of the fitted curve.
# Chain of UniProt A8B2U2 (A8B2U2 whole entry, looked up): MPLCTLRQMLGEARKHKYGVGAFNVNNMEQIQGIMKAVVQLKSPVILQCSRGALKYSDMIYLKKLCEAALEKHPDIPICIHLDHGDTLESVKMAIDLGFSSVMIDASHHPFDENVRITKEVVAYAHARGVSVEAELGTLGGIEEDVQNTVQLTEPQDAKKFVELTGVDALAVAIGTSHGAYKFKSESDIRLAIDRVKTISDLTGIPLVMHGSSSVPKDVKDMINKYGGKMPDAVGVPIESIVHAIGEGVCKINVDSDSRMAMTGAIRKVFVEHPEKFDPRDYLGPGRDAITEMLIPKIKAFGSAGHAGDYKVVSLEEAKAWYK
row,Structure (SMILES),Potency
1,Cc1cccc(N2CCN(Cc3ccc(Br)o3)CC2)c1C,"inconclusive: 17.8 µM [inhibitor, partial curve]"
2,Cc1ccc(CO/N=C/c2c(O)cc(C)oc2=O)cc1,"inconclusive: 31.5 µM [inhibitor, single point]"
3,Oc1[nH]c2ccccc2c1N=Nc1nc(Nc2ccccc2)nc(N2CCOCC2)n1,inactive
4,COc1ccc(O)c(C(c2c(C)[nH][nH]c2=O)c2c(C)[nH][nH]c2=O)c1,"inconclusive: 7.92 µM [inhibitor, partial curve]"
5,Cc1ccc(NC(=O)Nc2nnc(-c3ccccc3)o2)cc1,inactive
6,Cc1cccc(/C=N/NC(=O)Cn2nccc2C)n1,"inconclusive: 7.92 µM [inhibitor, partial curve]"
7,CCO[C@H]1OC(C(=O)NCc2ccccc2)=C[C@@H](c2ccc(Br)cc2)[C@@H]1CCCO,"inconclusive: 6.29 µM [inhibitor, single point]"
8,Cc1[nH]c2ccccc2c1/C=N/NC(=O)Cc1cccs1,inactive
9,CCOC(=O)Cc1csc(NC(=O)CN2CCN(CC)CC2)n1,"inconclusive: 14.1 µM [inhibitor, partial curve]"
10,Fc1ccc2c(c1)nnn2C1CCN(Cc2nnnn2CCc2ccccc2)CC1,"inconclusive: 20 µM [inhibitor, partial curve]"
11,COc1ccc(CN2CCC(Cc3ccccc3)CC2)cc1OC,"inconclusive: 15.8 µM [inhibitor, partial curve]"
12,CCOc1cc(/C=C/C(=O)c2ccc(OC)c(CN3CCOCC3)c2)cc(Br)c1O,"inconclusive: 31.6 µM [inhibitor, single point]"
13,Cc1ccccc1NC(=S)N(CCc1c(C)[nH]c2ccc(F)cc12)Cc1cccnc1,inactive
14,Cc1ccc(SCCOCCN2CCOCC2)cc1,"inconclusive: 39.8 µM [inhibitor, single point]"
15,Cc1cc(C=O)c(C)n1-c1ccc2c(c1)OCO2,inactive
16,Cc1ccc(-c2nn(CC(=O)Nc3cccnc3)c(=O)c3ccccc23)cc1,"inconclusive: 28.1 µM [activator, single point]"
17,CN1CCN(C(=S)c2ccc([N+](=O)[O-])cc2)CC1,"inconclusive: 25.1 µM [inhibitor, single point]"
18,COc1ccc(CNCc2c(O)c(Cl)cc3c(C)c(C)c(=O)oc23)c(OC)c1,"inconclusive: 20 µM [inhibitor, partial curve]"
19,O=[N+]([O-])c1ccc(N2CCN(CC3CCCCC3)CC2)cc1,"inconclusive: 20 µM [inhibitor, single point]"
20,CC[n+]1c(-c2ccccc2)c2cc(N)ccc2c2ccc(N)cc21,"inconclusive: 1.26 µM [inhibitor, partial curve] and inconclusive: 561 nM [inhibitor, full curve]"
